Data as given in PMC4336329 (PLoS ONE, 2015).
In all, about 310,000 compounds went through this assay and about 2,200 (0.71%) showed an effect of 50% or more. Effects have a minus sign here. The list shows a part of the results.

target: human ether-à-go-go-related gene (hERG) potassium channel (human, UniProt Q12809); test: primary screen, population patch clamp on CHO cells stably expressing hERG
Sequence (Q12809 whole entry, looked up): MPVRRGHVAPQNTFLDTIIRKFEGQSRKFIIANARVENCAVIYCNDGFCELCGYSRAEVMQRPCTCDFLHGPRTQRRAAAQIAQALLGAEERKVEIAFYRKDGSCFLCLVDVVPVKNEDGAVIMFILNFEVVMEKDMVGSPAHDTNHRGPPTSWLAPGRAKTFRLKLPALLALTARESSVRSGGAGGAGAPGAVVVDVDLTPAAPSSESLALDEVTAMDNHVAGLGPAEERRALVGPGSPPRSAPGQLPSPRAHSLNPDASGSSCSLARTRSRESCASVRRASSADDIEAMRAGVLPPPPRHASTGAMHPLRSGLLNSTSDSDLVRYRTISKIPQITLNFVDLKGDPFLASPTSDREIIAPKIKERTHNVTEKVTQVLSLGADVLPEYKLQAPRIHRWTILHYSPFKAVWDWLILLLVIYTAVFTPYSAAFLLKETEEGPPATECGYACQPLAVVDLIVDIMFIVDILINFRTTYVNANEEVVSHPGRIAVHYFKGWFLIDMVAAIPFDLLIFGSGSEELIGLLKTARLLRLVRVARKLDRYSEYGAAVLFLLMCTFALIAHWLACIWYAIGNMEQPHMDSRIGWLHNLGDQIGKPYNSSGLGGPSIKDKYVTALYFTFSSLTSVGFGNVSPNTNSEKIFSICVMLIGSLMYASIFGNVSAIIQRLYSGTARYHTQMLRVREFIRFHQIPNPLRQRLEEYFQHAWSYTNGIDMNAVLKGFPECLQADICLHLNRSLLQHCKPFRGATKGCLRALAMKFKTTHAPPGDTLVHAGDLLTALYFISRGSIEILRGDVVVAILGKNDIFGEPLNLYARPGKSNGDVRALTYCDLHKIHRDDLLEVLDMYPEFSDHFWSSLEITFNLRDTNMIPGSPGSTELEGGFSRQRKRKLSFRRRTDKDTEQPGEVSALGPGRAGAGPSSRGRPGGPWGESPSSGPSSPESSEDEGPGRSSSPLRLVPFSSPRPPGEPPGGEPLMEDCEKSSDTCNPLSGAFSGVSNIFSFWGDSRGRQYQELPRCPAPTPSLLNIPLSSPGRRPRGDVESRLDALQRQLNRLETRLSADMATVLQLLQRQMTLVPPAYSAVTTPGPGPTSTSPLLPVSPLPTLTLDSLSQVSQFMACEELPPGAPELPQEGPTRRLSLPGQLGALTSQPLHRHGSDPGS

Row | SMILES | hERG current change (%, negative = inhibition) at 1uM [%]
1 | CCCCn1c(N)c(N(Cc2ccccc2OC)C(=O)COc2ccccc2C#N)c(=O)[nH]c1=O | 8.57
2 | O=S(=O)(c1ccc2nnn(O)c2c1)N1CCCCC1 | 11.4
3 | Cc1ccc(-n2c(SCC(=O)NCc3ccco3)nc3sc(C)c(C)c3c2=O)cc1 | 12.1
4 | COc1ccc(NC(=O)CS(=O)CC(=O)Nc2ccc(NC(C)=O)cc2)cc1 (centres unmarked) | 7.24
5 | CC(=O)N1CCC(N2CCN(c3ccccc3F)CC2)CC1 | 0.633
6 | COc1ccc(NC(=O)c2ccc(-c3nn(C)c(=O)c4ccccc34)cc2)cc1 | 9.83
7 | O=C(/C=N/NC(=O)c1ccccc1Br)c1ccccc1 | 4.31
8 | CC1CC(C)CN(C(=O)CNC(=O)Cn2ccc3ccccc3c2=O)C1 (centres unmarked) | 6.56
9 | CCc1ccc(/C=N/n2c(C)cc(C)c(C#N)c2=O)cc1 | 14.5
10 | COC(=O)c1cc(NC(=O)CN(C)Cc2ccccc2)cc(C(=O)OC)c1 | 9.48
11 | C#CCOCCOCCOCCNc1nc(N2CCN(C(=O)CCCCCCCCCCNC(=O)[C@@H](CCSC)n3cc(CCO)nn3)CC2)nc(N2CCN(C(=O)CCCCCCCCCCNC(=O)[C@H]([C@@H](C)CC)n3cc(CCCCN=C(N)N)nn3)CC2)n1 | 11.8
12 | COc1cc(C(=O)Nc2oc(-c3ccccc3)c(-c3ccccc3)c2C#N)cc(OC)c1OC | -14.5
13 | CCOC(=O)c1[nH]c2cc3c(cc2c1CCCN1C(=O)c2ccccc2C1=O)OCCO3 | 0.667
14 | CCCCC1=CC2=CC(=O)C(C)(OC(=O)CC)C(=O)C2=CO1 (centres unmarked) | 19
15 | COc1ccc(CC(=O)N/N=C(\C)CC(=O)Nc2cccc(F)c2)cc1 | 9.98
16 | O=C(CCl)N1CCCC1c1ccc2c(c1)OCCO2 (centres unmarked) | 16.8
17 | CCc1noc(C)c1C(=O)NNC(=O)COc1ccccc1C | 8.72
18 | COc1cccc(C(=O)Nc2cccc(-c3nc4ncccc4o3)c2C)c1 | 12.6
19 | O=c1c([N+](=O)[O-])c(N2CCCCC2)c2ccccc2n1-c1ccccc1 | 12.1
20 | Cc1cc(=O)oc2ccc(OCC(=O)N(Cc3ccc(F)cc3)Cc3ccco3)cc12 | -19.7
21 | CC(C)C(O)(C#CCN1CCCCC1)c1ccccc1.Cl (centres unmarked) | 8.05

Row | SMILES | hERG current change (%, negative = inhibition) at 1uM [%]
22 | O=C1OCCN1P(=O)(c1ccccc1)c1ccccc1 | 0.204
23 | CN1CC2(C)OC(=O)C(Cl)=C2CC1c1ccccc1 (centres unmarked) | 11.2
24 | Cc1cc(-c2ccc(Cl)cc2)c2cnn(C(C)C)c2n1 | 15.7
25 | Cc1cc(C)cc(NC(=O)CSc2nc3c(oc4ccccc43)c(=O)n2-c2ccccc2)c1 | -1.68
26 | Cc1csc(SCC(=O)N2CCN(S(=O)(=O)c3ccc(Cl)cc3)CC2)n1 | -7.12
27 | CC(=O)Nc1ccccc1P(=O)(c1ccccc1)c1ccccc1OC(C)=O (centres unmarked) | 13.3
28 | CCOc1c(C(N)=O)cc([N+](=O)[O-])cc1[N+](=O)[O-] | 10.8
29 | Cc1cc(C)nc(NS(=O)(=O)c2ccc(NC(=O)CN3C(=O)S/C(=C\c4ccccc4)C3=O)cc2)n1 | 6.31
30 | C=CCOc1ccc(C2N3CC4(CC)CN2CC(CC)(C3)C4=O)cc1 (centres unmarked) | -0.798
31 | CN(C)S(=O)(=O)c1cccc(NC(=O)c2ccc3c(c2)S(=O)(=O)N=C2CCCCCN23)c1 | 19.6
32 | COc1ccc2[nH]c(C(=O)O)c(CCN3C(=O)c4cccc([N+](=O)[O-])c4C3=O)c2c1 | 11.9
33 | Cc1cccc(C)c1NC(=O)C1CCCN1C(=O)OC(C)(C)C (centres unmarked) | 10.5
34 | COc1ccc(C(=O)N2CCN(C(=O)c3cc(OC)c(OC)c(OC)c3)CC2)cc1 | -8.94
35 | Cc1ccc(C(=O)n2c3ccccc3c3ccccc32)cc1 | 10.5
36 | CCc1ccc2[nH]c(=O)c(CN(CCN(C)C)C(=O)Nc3ccccc3OC)cc2c1 | -41.4
37 | COc1ccc(-c2noc(CNC(=O)c3ccc4c(c3)OCO4)n2)cc1 | 2.84
38 | COc1ccccc1-c1cc(C(=O)Nc2ccc(F)cc2F)no1 | 5
39 | O=C(Oc1ccc2ccccc2c1)c1cncc(Br)c1 | -3.28
40 | O=C(NCc1ccc(F)cc1)c1cccc2c1C(=O)c1ccc(N3CCOCC3)cc1S2(=O)=O | 14.1
41 | Cc1cccc(C(=O)NN(C)c2nc(-c3ccccc3)nnc2C(F)(F)F)c1 | -4.7
42 | Cl.N=c1n(CCN2CCCC2)c2ccccc2n1CC(O)c1ccc(Cl)c(Cl)c1 (centres unmarked) | -33.2

Row | SMILES | hERG current change (%, negative = inhibition) at 1uM [%]
43 | Cn1c(=O)c2c(nc(NCCc3ccccc3)n2Cc2ccccc2)n(C)c1=O | 15.1
44 | O=C(NCC1CCCN1S(=O)(=O)c1cccs1)C(=O)Nc1cccc(F)c1 (centres unmarked) | 8.62
45 | CCOc1cc(/C=N/NC(=O)c2ccncc2)ccc1OC(=O)c1ccc([N+](=O)[O-])cc1 | 6.99
46 | Cc1ccc(NC(=S)NC(=O)c2ccc(Br)o2)c(C)c1 | 13.3
47 | CCc1nnc(NC(=O)CSc2nnc(Cc3cccn3C)n2CCOC)s1 | 8.29
48 | O=C(NCC(c1cccs1)N1CCOCC1)c1ccc([N+](=O)[O-])cc1 (centres unmarked) | -0.778
49 | O=C(CC1CCCCC1)NCc1cn2ccsc2n1 | 15.8
50 | COc1ccc(Cc2nc(C(=O)Nc3ccc(F)cc3)cs2)cc1 | 13.6
51 | COc1ccccc1NC(=O)C(C)OC(=O)CCCc1c[nH]c2ccccc12 (centres unmarked) | 7.15
52 | O=C(CCC1CCCC1)N[C@@H](Cc1ccc(O)cc1)C(=O)O | 19
53 | CCCCn1c(N)c(N(CC(C)C)C(=O)C2CCN(C(=O)c3ccc(Cl)cc3)CC2)c(=O)[nH]c1=O | 1.13
54 | CC1CCCC(NC(=O)COC(=O)CN2C(=O)C3CCCCC3C2=O)C1C (centres unmarked) | 15.2
55 | COCCN(C(=O)Cn1c(C(F)(F)F)nc2ccccc21)c1c(N)n(Cc2ccccc2)c(=O)[nH]c1=O | 0.848
56 | O=S(=O)(c1ccc(Cl)cc1)N1CCCC(C(F)(F)F)C1 (centres unmarked) | 13.3
57 | CCOc1ccc(NC(=O)c2ccc(Br)o2)c([N+](=O)[O-])c1 | 3.16
58 | Nc1nc(SCC(=O)Nc2ccccc2)[nH]c(=O)c1NC(=O)c1cccs1 | 7.11
59 | CCOC(=O)c1cnc2ccc(C)cn2c1=O | -2.98
60 | O=C(Nc1ccc(F)cc1F)Nc1sccc1-c1nc2ccccc2s1 | 15
61 | COc1ccc(C(=O)COC(=O)CCN2C(=O)C3C4C=CC(C5CC45)C3C2=O)cc1 (centres unmarked) | 12.9
62 | O=C(c1cccs1)N1CCN(c2cc(Cl)ccc2Cl)CC1 | 9.11
63 | CCOc1ccccc1-c1cc(C(=O)Nc2ccc(C(=O)O)cc2)c2ccccc2n1 | 17.1

Row | SMILES | hERG current change (%, negative = inhibition) at 1uM [%]
64 | Nn1c(Cc2cccc3ccccc23)nnc1SCCOc1ccc(F)cc1 | 10.7
65 | COc1cc(C)c(NC(=S)Nc2ccc(C)c(Cl)c2)cc1OC | 7.52
66 | O=C(/C=C/c1ccc(Cl)cc1Cl)N1CCc2ccccc21 | 3.81
67 | Cc1cc(COC(=O)C2N3C(=O)[C@@H](NC(=O)COc4ccccc4)[C@H]3SC2(C)C)on1 (some centres unmarked) | -0.692
68 | N/C(=N\c1nc2c(c(=O)[nH]1)CCC2)Nc1cccc(Cl)c1 | 9.68
69 | CC(=O)Nc1cc(NC(=O)CCCC(=O)O)ccc1Cl | 3.1
70 | O=C(CSc1nc2ccc(Nc3nc(N4CCOCC4)nc(N4CCOCC4)n3)cc2s1)N1CCOCC1 | -0.773
71 | CC(C)CN(C(=O)COC(=O)c1cccnc1Cl)c1c(N)n(Cc2ccccc2)c(=O)[nH]c1=O | 6.1
72 | O=[N+]([O-])c1cccc(-c2nc(-c3ccccc3)c(-c3cccs3)[nH]2)c1 | 11.9
73 | O=C(CCc1nnc(C2CCCCC2)o1)N1CCN(Cc2ccccc2)CC1 | 15.5
74 | Cn1nc(C(F)(F)F)c(CNC(=O)C(C)(C)CCl)c1N1CCOCC1 | 8.79
75 | CN(C)c1ccc(/C=C(/C#N)C(=O)NCc2ccccc2)o1 | 10.1
76 | COC(CN(C)S(=O)(=O)c1cc2c3c(c1)CCN3C(=O)CC2)OC | 21.2
77 | COc1ccc(CN2CCNC(=O)C2CC(=O)NCCc2nc(C)c3c(n2)CCC3)cc1C (centres unmarked) | 32.9
78 | O=C(O)c1ccc(COc2cccc(CO)c2)cc1 | 9.83
79 | CCOc1cc(/C=C2/C(=N)N3C(=NC2=O)SN=C3S(C)(=O)=O)ccc1OS(=O)(=O)c1ccccc1 | 17.3
80 | COc1cc(NC(=O)C/C(C)=N/NC(=O)C(OC)c2ccccc2)c(OC)cc1Cl (centres unmarked) | 0.8
81 | COc1ccc(Cl)c2sc(N(CCN(C)C)C(=O)c3ccc4c(c3)OCCO4)nc12.Cl | 0.602
82 | O=C(CN1CCC(NC(=O)c2ccccc2Cl)CC1)NCc1ccccc1 | 9.16
83 | C=CCc1cc(/C=N/n2cnnc2)cc(OCC)c1O | 11.7
